# Measurements: PubChem BioAssay AID2100 (National Center for Advancing Translational Sciences (NCATS), 2009)
# The whole screen tested about 300,000 compounds, of which about 1,200 (0.4%) were called active. This list was built around the results that the source calls inconclusive (neither active nor inactive); the mix of calls is not that of the screen. The call rests on the fitted dose curve; in most records, active means well fitted inhibition curve with a large enough effect; inconclusive means small, poorly fitted or top-dose-only effect, or another doubt; inactive means no such curve, though single readings can be large or run the other way. Where the call is inconclusive, the potency comes from a doubtful curve fit.
# Target: Lysosomal alpha-glucosidase (Homo sapiens) (UniProt P10253)
# Assay: qHTS Assay for Inhibitors and Activators of Human alpha-Glucosidase Cleavage of Glycogen;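 on activity change, negative = inhibition: 0% = full enzyme reaction and -100% = no-enzyme basal signal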
# Conditions: recombinant GAA, glycogen substrate, Amplex Red glucose oxidase fluorescence; activity change, negative = inhibition: at 76.4 µM (top of the series) unless noted
# Method in brief: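 qHTS, 1536-well; enzyme 4 nM final; cpd up to 77 uM; substrate bovine liver glycogen 30 ug; 50 mM citrate/phosphate pH 5.0, 0.01% Tween-20; 37 C, 40 min; Amplex Red detection 45 min RT; Hill fit → AC50.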
# Potency means the concentration at half of the fitted maximal effect.
Structure (SMILES),Potency,"activity change, negative = inhibition"
COCCN(Cc1cc2cc(C)ccc2n2nnnc12)C(=S)Nc1ccccc1C,"inconclusive: 24.9 µM [inhibitor, single point]",
COc1ccc(Cn2c(=O)[nH]c3cc(C(=O)N4CCN(Cc5ccccc5)CC4)ccc3c2=O)cc1,inactive,
CCOc1ccc(N(CC)C(=O)c2noc3c2COc2ccc(C)cc2-3)cc1,inactive,
COc1ccc(Cl)cc1NC(=S)NCc1cccs1,"inconclusive: 31.6 µM [inhibitor, partial curve]",
O=C(NCCc1c[nH]c2ccccc12)C(F)(F)F,,inconclusive: 32% [activator]
CC(C)C(=O)N1N=C2CCCCC2C1(O)C(F)(F)F (configuration not stated),"inconclusive: 6.26 µM [inhibitor, single point]",
COc1cc(OC)c(OC)cc1CNc1cc(C)ccc1OC,active: 11.2 µM,
N#Cc1nc(Cc2ccccc2)oc1NCc1ccccc1,active: 50.1 µM,
COc1ccc(NCc2n[nH]c(=O)c3ccccc23)cc1,"inconclusive: 15.8 µM [inhibitor, partial curve]",
COc1ccc2c(CNCc3ccco3)c(C(=O)O)n(Cc3ccc(F)cc3Cl)c2c1,inactive,
O=c1c(-c2nc3ccccc3s2)cccn1Cc1ccccc1,"inconclusive: 2.82 µM [inhibitor, full curve]",
Cc1cccc(NC(=O)NNC(=O)c2ccc3ccccc3c2O)c1,"inconclusive: 50.1 µM [inhibitor, single point]",
NNC(=O)c1cc2c(s1)CCCCCC2,"inconclusive: 39.5 µM [inhibitor, partial curve]",
CCN(CC)c1ccc(/C=N/O)cc1,"inconclusive: 39.5 µM [inhibitor, single point]",
CNC(=O)CSc1nc2c([nH]c3ccccc32)c(=O)n1CCOC,"inconclusive: 5.01 µM [inhibitor, full curve]",
Oc1ccc(Nc2nc(-c3ccc(O)cc3)cs2)cc1,active: 24.9 µM,
O=C(NC(=S)Nc1cccc(C(F)(F)F)c1)c1ccc2nonc2c1,"inconclusive: 11.2 µM [inhibitor, partial curve]",
COc1cc(-c2nc3cnccn3c2NC(C)(C)CC(C)(C)C)ccc1O,"inconclusive: 12.6 µM [inhibitor, partial curve]",
CN(C)c1ccc(CN(C(=O)c2ccc(Cl)c([N+](=O)[O-])c2)C2CCS(=O)(=O)C2)cc1 (configuration not stated),"inconclusive: 35.5 µM [inhibitor, partial curve]",
CCc1ccccc1NC(=O)CSc1nnc(-c2nonc2NC(C)=O)n1C,inactive,
COCCNC(=O)C1=C(N)C(C(=O)Nc2ccc(C)c(S(=O)(=O)N3CCCCC3)c2)SC1=Nc1ccc(C)cc1C (configuration not stated),"inconclusive: 35.5 µM [inhibitor, single point]",
Cc1ccc(OCCSc2nc3ccccc3n2CC(=O)N2CCOCC2)c(C)c1,"inconclusive: 11.2 µM [inhibitor, single point]",
c1ccc2c(c1)NC(CN1CCOCC1)CO2 (configuration not stated),"inconclusive: 44.7 µM [inhibitor, partial curve]",
CC(C)NCC(O)c1ccc(NS(C)(=O)=O)cc1 (configuration not stated),inactive,

Structure (SMILES),Potency,"activity change, negative = inhibition"
C[n+]1cccc(C2C(C#N)=C(N)Oc3c2ccc2ccccc32)c1 (configuration not stated),"inconclusive: 31.6 µM [inhibitor, single point]",
c1ccc(-n2cnc3cc(NCc4ccco4)ccc32)cc1,"inconclusive: 12.6 µM [inhibitor, partial curve]",
Nc1ccccc1Nc1cc(-c2cccc(Cl)c2)nn1-c1ccccc1,"inconclusive: 10 µM [inhibitor, partial curve]",
O=C1c2ccccc2C(=O)c2c1cccc2-n1nnc2ccccc21,inactive,
O=C(O)CCCCCn1c(SCC(=O)c2ccc(O)c(O)c2)nc2ccsc2c1=O,inactive,
CCOC(=O)C1=C(CSc2nc(CC)c(C)cc2C#N)OC(N)=C(C#N)C1c1ccc(OC)cc1 (configuration not stated),"inconclusive: 28.2 µM [inhibitor, single point]",
CCOc1cc(CNc2ccc(O)cc2)cc(Br)c1OCc1ccccc1,"inconclusive: 3.98 µM [inhibitor, partial curve]",
Oc1ccc(N2CCN(Cc3c(-c4ccccc4)nc4ccccn34)CC2)cc1,"inconclusive: 50.1 µM [inhibitor, single point]",
CCOc1ccc(NC(=S)NNC(=O)CC(C)O)cc1 (configuration not stated),"inconclusive: 39.5 µM [inhibitor, single point]",
Cc1ccc(CNC(=O)C2CC(c3ccccc3[N+](=O)[O-])=NO2)cc1 (configuration not stated),inactive,
Cc1ccc(NC(=O)c2cc(C(C)(C)C)nn2Cc2ccccc2)cc1,inactive,
NC(=S)N/N=C/c1ccc(C23CC4CC(CC(C4)C2)C3)cc1,"inconclusive: 25.1 µM [inhibitor, partial curve]",
O=C(O)c1ccc(CN2C(=O)CSC2=S)cc1,active: 17.8 µM,
CCS(=O)(=O)N1CCc2cc(C(=O)NCc3ccc(OC)cc3)ccc21,inactive,
c1ccc2c(c1)CCCN2Cc1nnnn1C1CCCC1,inactive,
O=C(NNc1ncccc1Cl)c1c(Cl)cccc1Cl,"inconclusive: 39.5 µM [inhibitor, single point]",
Oc1ccc(NCc2cccc(OCc3ccccc3)c2)cc1,"inconclusive: 50.1 µM [activator, single point]",
C=CCNc1scc(-c2ccccc2)[n+]1CC=C,inactive,
C=CCc1cccc(CNc2c(C)cc(C)cc2C)c1O,"inconclusive: 35.5 µM [inhibitor, partial curve]",
CCC1=NNc2cccc3c(OC)ccc1c23,"inconclusive: 9.92 µM [activator, partial curve]",
COc1cc(/C=N/NC(=O)c2cc(-c3ccccc3)nc3ccccc23)ccc1O,"inconclusive: 3.16 µM [inhibitor, partial curve]",
COCCCNC(=S)NNC(=S)NCCCOC,"inconclusive: 3.14 µM [inhibitor, full curve]",
COc1ccccc1CNC(=O)CCn1c(=O)c2ccccc2n(CC(=O)Nc2cccc(Cl)c2)c1=O,inactive,
Clc1ccc(N/N=C/c2cccnc2)cc1,"inconclusive: 28 µM [inhibitor, partial curve]",

Structure (SMILES),Potency,"activity change, negative = inhibition"
CCOc1ccc(CNC(=O)C2CCN(c3nnc(-n4cccc4CNc4ccc(C)cc4)s3)CC2)cc1OC,active: 31.6 µM,
CC(=O)N1CCOc2cc(S(=O)(=O)Nc3cccc(C(F)(F)F)c3)c(Cl)cc21,"inconclusive: 1.58 µM [inhibitor, full curve, poor fit]",
CCOC(=O)c1ccccc1NC(=O)C(=O)Nc1ccc2nc3n(c(=O)c2c1)CCCCC3,"inconclusive: 11.2 µM [inhibitor, single point]",
NNc1nc(Nc2ccccc2)nc(Nc2ccccc2)n1,"inconclusive: 35.5 µM [inhibitor, single point]",
COc1cccc(NC(=S)NNC(=O)Cn2nc(C(F)(F)F)cc2C)c1,"inconclusive: 10 µM [inhibitor, partial curve]",
COCCNC(=S)NNC(=O)c1ccc(-n2cnnn2)cc1,"inconclusive: 631 µM [inhibitor, partial curve, poor fit]",
O=C(O)c1cccc(N/N=C/c2ccc(-c3ccccc3)cc2)c1,"inconclusive: 25.1 µM [inhibitor, partial curve]",
Cc1cccc(Nc2c(-c3ccc(N4CCOCC4)cc3)nc3ncccn23)c1,active: 35.5 µM,
CCn1c2ccccc2c2cc(NC(=O)CSc3nccc(=O)[nH]3)ccc21,"inconclusive: 22.4 µM [inhibitor, partial curve]",
COC(=O)c1ccc(N/N=C/c2cc([N+](=O)[O-])cc(OC)c2O)cc1,"inconclusive: 3.95 µM [inhibitor, full curve]",
Cc1ccc(Nc2c(-c3cccnc3)nc3ccc(C)cn23)cc1,"inconclusive: 25.1 µM [inhibitor, partial curve]",
c1ccc(CN2CCC(=NNc3nc4ccccc4[nH]3)CC2)cc1,"inconclusive: 3.14 µM [inhibitor, full curve]",
COc1cc(C2Nc3ccc4ncccc4c3C3=C2C(=O)CCC3)ccc1O (configuration not stated),"inconclusive: 11.2 µM [inhibitor, partial curve]",
C=CCc1ccc(O)c(-c2ccc(O)c(CC=C)c2)c1,active: 35.5 µM,
O=C1CSC(=S)N1c1cccnc1,"inconclusive: 28.2 µM [inhibitor, partial curve]",
CSc1ccccc1NC(=O)CN(C)CC(=O)Nc1cc(C)ccc1C,inactive,
O=C(CSc1cn(CCNC(=O)c2ccccc2F)c2ccccc12)Nc1ccc2c(c1)OCCO2,inactive,
O=C1CCNc2cc3ccccc3cc21,"inconclusive: 17.6 µM [activator, single point]",
CC(N=Cc1cccc(O)c1O)c1ccccc1 (configuration not stated),"inconclusive: 24.9 µM [inhibitor, single point]",
Cc1ccc(-c2csc(N/N=C/C=C/c3ccccc3)n2)cc1,"inconclusive: 35.2 µM [inhibitor, single point]",
COc1ccc(/C=N/Nc2ccc(C(=O)O)cc2)cc1Br,"inconclusive: 9.92 µM [inhibitor, partial curve]",
COc1cc(/C=C2/C(=O)NN(c3cccc(Cl)c3)C2=O)cc(OC)c1O,"inconclusive: 7.08 µM [inhibitor, single point]",
Cc1cc(NCc2ccncc2)ccc1Br,"inconclusive: 35.5 µM [activator, single point]",
COc1ccc(NC(=O)NNC(=O)CCc2ccc(O)c(O)c2)cc1OC,"inconclusive: 50.1 µM [inhibitor, single point]",
